In the supplement of paper PMC7826260:
The list shows a part of the results. The data describe in vitro nicking of single-stranded DNA by Rep domains for 1 h at 37 °C with 3 µM enzyme; only the middle of the 90-letter strands is printed. Values are log2 of uncut reads against the no-enzyme pool; uncut sequences lie near 0, cut ones below; no hit call is given. Shares of all reads are compared; values above 0 arise when much of the pool is cut.

Tests used:
Experiment in all cases: uncleaved DNA left, log2 of reads against the no-enzyme library (log2 ratio); higher = less cleavage (more negative = more Rep cleavage of the k-mer); sequences stand for … in CTCGTCCG…ACCGGAGA
[1] = system: T1, Rep nickase domain of Muscovy duck circovirus
T1 sequence (residues 1-111 of Rep, tag left off): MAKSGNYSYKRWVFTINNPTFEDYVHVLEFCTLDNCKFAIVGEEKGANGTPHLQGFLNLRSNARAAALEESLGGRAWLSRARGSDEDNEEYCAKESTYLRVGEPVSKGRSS
Experimental: (§1)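 A pool of 90-nt single-stranded DNAs with seven random bases just before the constant AC of the nick site (name = the seven bases) was cut by 3 µM recombinant His6-SUMO-tagged Rep nickase domain (300 nM DNA, 50 mM HEPES pH 8.0, 50 mM NaCl, 1 mM MnCl2, 1 h, 37 °C, three replicates). Uncut DNA was amplified and sequenced.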

[2] = system: T2, Rep nickase domain of banana bunchy top virus
T2 sequence (residues 1-94 of Rep, tag left off): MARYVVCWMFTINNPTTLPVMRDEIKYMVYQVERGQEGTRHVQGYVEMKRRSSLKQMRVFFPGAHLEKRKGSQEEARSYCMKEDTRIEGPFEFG
Experimental: as §1

[3] = system: T3, Rep nickase domain of cabbage leaf curl virus
T3 sequence (residues 1-116 of Rep, tag left off): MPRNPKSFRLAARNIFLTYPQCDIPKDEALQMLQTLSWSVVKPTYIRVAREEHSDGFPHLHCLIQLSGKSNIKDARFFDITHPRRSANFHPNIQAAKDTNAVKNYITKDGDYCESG
Experimental: as §1

[4] = system: T4, Rep nickase domain of chickpea chlorotic dwarf virus
T4 sequence (residues 1-124 of Rep, tag left off): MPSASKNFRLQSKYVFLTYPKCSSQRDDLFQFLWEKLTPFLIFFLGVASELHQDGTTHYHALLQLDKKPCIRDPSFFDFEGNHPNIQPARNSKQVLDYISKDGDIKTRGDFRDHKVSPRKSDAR
Experimental: as §1

[5] = system: T5, Rep nickase domain of faba bean necrotic yellows virus
T5 sequence (residues 1-98 of Rep, tag left off): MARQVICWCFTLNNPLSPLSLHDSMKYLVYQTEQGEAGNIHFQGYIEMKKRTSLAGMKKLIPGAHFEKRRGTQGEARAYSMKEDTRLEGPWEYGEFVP
Experimental: as §1

[6] = system: T6, Rep nickase domain of maize striate mosaic virus
T6 sequence (residues 1-117 of Rep, tag left off): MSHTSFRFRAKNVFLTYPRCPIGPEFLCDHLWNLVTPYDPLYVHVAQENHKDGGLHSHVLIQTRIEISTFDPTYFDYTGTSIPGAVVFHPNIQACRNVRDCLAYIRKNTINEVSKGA
Experimental: as §1

[7] = system: T7, Rep nickase domain of porcine circovirus 2
T7 sequence (residues 2-116 of Rep, tag left off): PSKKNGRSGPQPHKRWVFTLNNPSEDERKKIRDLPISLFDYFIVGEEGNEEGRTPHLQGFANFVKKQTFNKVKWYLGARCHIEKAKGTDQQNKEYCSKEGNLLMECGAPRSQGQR
Experimental: as §1

[8] = system: T8, Rep nickase domain of tomato golden mosaic virus
T8 sequence (residues 1-124 of Rep, tag left off): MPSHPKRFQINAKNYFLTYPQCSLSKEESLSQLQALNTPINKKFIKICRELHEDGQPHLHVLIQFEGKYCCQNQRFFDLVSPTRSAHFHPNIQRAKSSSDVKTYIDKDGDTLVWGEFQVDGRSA
Experimental: as §1

[9] = system: T9, Rep nickase domain of tomato yellow leaf curl virus
T9 sequence (residues 1-136 of Rep, tag left off): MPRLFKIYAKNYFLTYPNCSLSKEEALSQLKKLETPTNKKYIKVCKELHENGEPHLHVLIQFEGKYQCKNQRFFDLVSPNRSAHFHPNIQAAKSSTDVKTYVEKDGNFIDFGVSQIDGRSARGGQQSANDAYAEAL
Experimental: as §1

[10] = system: T10, Rep nickase domain of wheat dwarf virus
T10 sequence (residues 1-137 of Rep, tag left off): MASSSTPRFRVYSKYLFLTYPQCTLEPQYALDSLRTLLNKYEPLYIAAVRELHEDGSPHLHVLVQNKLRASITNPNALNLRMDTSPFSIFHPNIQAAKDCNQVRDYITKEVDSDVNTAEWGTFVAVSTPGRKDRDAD
Experimental: as §1

| Sequence | uncleaved DNA left (log2) [1] | uncleaved DNA left (log2) [2] | uncleaved DNA left (log2) [3] | uncleaved DNA left (log2) [4] | uncleaved DNA left (log2) [5] | uncleaved DNA left (log2) [6] | uncleaved DNA left (log2) [7] | uncleaved DNA left (log2) [8] | uncleaved DNA left (log2) [9] | uncleaved DNA left (log2) [10] |
| --- | --- | --- | --- | --- | --- | --- | --- | --- | --- | --- |
| ATCAATA | 0.0905 | 0.183 | 0.00409 | -1.18 | 0.118 | -0.417 | 0.0255 | 0.159 | 0.261 | 0.205 |
| GTGGAGA | 0.105 | 0.0473 | 0.66 | 1.51 | 0.0206 | 1.78 | 0.16 | 0.203 | 0.125 | 0.209 |
| TGAGGTA | 0.139 | 0.201 | 0.47 | 1.08 | 0.155 | 1.49 | 0.229 | 0.253 | 0.0876 | 0.188 |
| CCTAGGC | 0.0178 | -0.13 | -0.014 | 0.273 | -0.0771 | -0.758 | -0.0301 | -2.15e-05 | -0.194 | -0.13 |
| TCAGGCG | -0.0514 | -0.0368 | -0.637 | 0.343 | -0.0237 | -0.635 | 0.0872 | 0.0175 | 0.0336 | -0.0617 |
| TGGCGAC | 0.0646 | -0.0261 | 0.056 | 0.644 | -0.0646 | 0.71 | 0.141 | -0.0672 | -0.167 | 0.0234 |
| CTAGGAT | 0.175 | 0.127 | 0.448 | 1.79 | 0.141 | 1.94 | 0.241 | 0.234 | -0.175 | 0.0934 |
| AACGTTA | 0.0358 | -0.0914 | -0.161 | -1.79 | 0.0657 | -0.342 | -0.306 | 0.101 | -0.0526 | -0.0871 |
| AGAGAAC | 0.05 | -0.121 | 0.158 | 0.39 | 0.0899 | 0.343 | -0.00491 | 0.0293 | 0.0243 | -0.0484 |
| CTTCTGG | 0.117 | 0.102 | 0.109 | 0.373 | 0.0283 | -0.11 | 0.169 | 0.0433 | 0.0617 | 0.00695 |
| CATATCA | 0.0176 | 0.0148 | 0.251 | -0.589 | 0.0473 | 0.187 | 0.041 | -0.00542 | 0.138 | 0.162 |
| TTTCCCA | -0.568 | -0.0546 | 0.169 | -0.642 | -0.133 | 0.056 | -2.78 | -0.0534 | -0.00772 | -0.00707 |
| AATCACG | 0.00731 | -0.0152 | -0.834 | 0.00818 | 0.00256 | -1.11 | 0.148 | 0.0324 | 0.00436 | -0.0147 |
| CAATTCC | 0.0154 | 0.0758 | -2.4 | -2.47 | -0.0319 | -0.896 | -0.134 | -0.458 | 0.0445 | -0.384 |
| CTCTATT | -3.2 | -2.82 | -1.68 | -3.16 | -0.17 | -1.16 | -3.47 | -0.372 | -0.0483 | -0.556 |
| GCGCTGT | 0.0975 | 0.02 | 0.153 | 0.595 | 0.07 | 1.55 | 0.0152 | -0.0855 | 0.058 | -0.0187 |
| TGGGTGC | 0.0695 | 0.0916 | 0.332 | 0.562 | -0.0513 | 0.359 | 0.24 | -0.00233 | 0.0804 | 0.0183 |
| TGATCTG | -0.0815 | -0.0318 | -0.00576 | 0.593 | -0.0646 | 1.44 | 0.0789 | -0.0815 | -0.0895 | 0.0463 |
| CAAATTG | 0.187 | 0.168 | -0.497 | -0.757 | 0.162 | -1.04 | 0.308 | 0.205 | 0.227 | 0.098 |
| TACTAGT | -3.54 | -3.09 | -3.05 | -2.49 | -0.145 | -0.472 | -3.74 | -0.223 | -0.0749 | -0.149 |
| TGAGTAT | 0.0963 | 0.117 | 0.22 | 0.653 | -0.0213 | 1.38 | 0.1 | 0.0672 | 0.0675 | 0.0187 |
| CAGGACC | 0.118 | 0.072 | 0.282 | 0.768 | 0.136 | 0.432 | 0.0756 | 0.152 | 0.0271 | 0.25 |
| GTTGCAT | 0.0682 | 0.151 | 0.401 | 1.01 | 0.0504 | 0.918 | 0.174 | 0.0523 | 0.137 | 0.0524 |
| GACGATC | 0.108 | 0.0285 | 0.367 | 0.689 | 0.0421 | 0.775 | 0.0494 | 0.0306 | 0.166 | 0.126 |
| GGCGCTC | -0.0896 | -0.0714 | 0.22 | 0.795 | -0.143 | 1.24 | 0.0307 | -0.181 | -0.0895 | -0.0529 |
| TCAGAGT | 0.181 | 0.189 | 0.292 | 0.192 | 0.169 | -0.0654 | 0.192 | 0.0495 | 0.107 | 0.176 |
| TAGATCT | -0.0653 | -1.82 | -2.1 | -2.72 | -1.38 | -0.341 | -3.65 | -0.203 | -0.028 | -0.208 |
| CTCGGTA | -0.0154 | -0.198 | 0.0413 | -0.251 | -0.0829 | -0.0861 | 0.013 | -0.0502 | -0.112 | -0.124 |
| CACTCGC | -0.0969 | 0.0989 | -0.612 | -0.683 | -0.0598 | -1.05 | -0.114 | -0.115 | 0.0113 | -0.0348 |
| CTGGTAG | 0.135 | 0.0419 | -0.803 | -0.523 | 0.0709 | -0.946 | 0.212 | -0.0311 | 0.0421 | 0.0376 |
